Results on 38 variants are retold here after the RNAGym collection of RNA variant scans (doi:10.1073/pnas.2313332121).

This sample is rich in variants without activity. Some results are limits rather than exact numbers.

The chains are these.
B1: TPR 5TU (parent)
chain: GGAUCUUCUCGAUCUAACAAAAAAGACAAAUCUGCCACAAAGCUUGAGAGCAUCUUCGGAUGCAGAGGCGGCAGCCUUCGGUGGCGCGAUAGCGCCAACGUUCUCAACUAUGACACGCAAAACGCGUGCUCCGUUGAAUGGAGUUUAUCAUG

The data set covers variants of B1. The experiment in a line: polymerase ribozyme fitness, log enrichment relative to wild type (log ratio); higher = more active; in vitro selection for triplet polymerase activity. Summed up:
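Mutant libraries of both subunits of a heterodimeric triplet polymerase ribozyme were PCR-built, transcribed, and selected once in triplicate, with frozen incubation at −7 °C and capture of gel-excised extended constructs on streptavidin beads before RT-PCR. Illumina sequencing of input and output libraries was filtered to genotypes with ≥10 input reads and ≥1 read per output. Fitness is the logarithm of genotype enrichment over wild-type enrichment, using inverse-variance-weighted replicate averages. The logarithm is base 2.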
On to GGAUCUUCUCGAUCGAACAAAAAAGACAAAUCUGCCACAAAGCUUGAGAGCAUCUUCGGAUGCAGAGGCGGCAGCCUUCGGUGGCGCGAUAGCGCAAACGUUCUCAACUAUGACACGCAAAACGCGUGCUCCGUUGAAUGGAGUUUAUCAUG, for which the “polymerase ribozyme fitness (log ratio)” value was -0.302. Consider GGAUCUUCUCGAUCGAACAAAAAAGACAAAUCUGCCACAAAGCUUGAGAGCAUCUUCGGAUGCAGAGGCGGCAGCCUUUGGUGUCGCGAUAGCGCCAAUGUUCGCAACUAUGACACGCAAAACGCGUGCUCCGUUGAAUGGAGUUUAUCAUG, for which the “polymerase ribozyme fitness (log ratio)” value is at most -4.2. In the case of GGAUCUUCUCGAUCGAACAAAAAAGACAAAUCUGCCACAAAGCUUGAGAGCAUCUUCGUAUGCAGAGGCGGCAGCCUUCGGUGGCGCGAUAGCGCCAACGUUCUCAACUAUGACACGCAAAACGCGUGCUCCGUGGAAUGGAGUUUAUCAUG it was -3.96; in that of GGAUCUUCUCGAUCGAACAAAAAAGACAAAUCUGCCACAAAGCUUGAGAGCAUCUUCGGAUGCAGAGGCGUCAGCCUUCGGUGGCGCGAUAGCGCCAACGUUCUCAACUAUGACACGCAAAACGCGUGCUCCGUUGAAUGGAGUUUAUCAUG, -2.28; in that of GGAUCUUCUCGAUCGAACAAAAAAGACAAAUAUGCCACAAAGCUUGAGAGCAUCUUCGGAUGCAGAGGCGGCAGCCUUCGGUGGCGCAAUAGCGCCGACGUUCUCAACUAUGACACGCAAAACGCGUGCUCCGUUGAAUGGAGUUUAUCAUG, at most -4.2. In the case of GGAUCUUCUCGAUCGAACAAAAAAGACAAAUCUGCCACAAAGCUUGAGAGCAUCUUCGGAUGCAGAGUCGGCAGCCUUCGGUGGCGUAAUAGCGCCAACGUUCUCAACUAUGACACGCAAAACGCGUGCUCCGUUGAAUGGAGUUUAUCAUA it was at most -4.2; in that of GGAUCUUCUCGAUCGAACAAAAAAGACAAAUCUGCCACAAAUCUUGUGAGCAUCUUCGGAUGCAGAGGCGGCAGCCUUCGGUGGCGAGAUAGCGCCAACGUUCUCAACUAUGACACGCAAAACGCGUGCUCUGUUGCAUGGAGUUUAUCAUG, at most -4.2; in that of GGAUCUUCUCGAUCGAACAAAAAAGACAAAUCUGCCACAAAGCUUGAGAGCAUCUUCGGAUGCAGAGGCGGCAGCCUUCGGUGGCGCCAUAGCGCCAGCGUCCUCAACUAUGACACGCAAAACGCGCGCUCCGUUGAAUGGAGUUUAUCAUG, at most -4.2.

Regarding GGAUCUUCUCGAUCGAACAAAAAAGACAAAUCUGCCACAAAGCUUGAGAGCAUCUUCGGAUGCAGAGGCGGCAGCGUUCGGUGGCGCGAUAGCGCCAACGUUCUCACCUAUGACACGCAAAACGCGUGCUCCGUUGAAUGGAGUUUAACAUA, the “polymerase ribozyme fitness (log ratio)” value was at most -4.2. For GGAUCUUCUCGAUCGAACAAAAAAGACAAAACUGCCACAAAACUUGAAAGCAUCUUCGGAUGACGAGGCGGCAGCCUUCGGUGGCUCGAUAGCACCAACGUUCUCAACUAUGACACGCAAAACGCGUGCUCCGUUGAAUGGAGUUUAUCAUG, the “polymerase ribozyme fitness (log ratio)” value is at most -4.2.

Consider GGAUCUUCUCGAUCGAACAAAAAAGACAAAUCUGCGACAAAGCUUGAGAGCAUCUUCGGAUGCAGAGGCGGCAGCCUUCGGUGGCGCGAUAGCGCCAACGUUCUCAACUAGGACACGCAAAACACGUGCUCCGUUGAAUGCAGUUUAUCUUG, for which the “polymerase ribozyme fitness (log ratio)” value is at most -4.2.

Consider GGAUCUUCUCGAUCGAACAAAAAAGACAAAUCUGCCACAAACCUUGAGAGCAUGUUCGGAUGCAGAGGCGGCAGCCUUCGGUGGCGCGAUAGAGCCAACGUGCUCAACUAUGACAUCCAAAACGCGUGCUCCGUCGAAUGGAGUGUAUCAUU, for which the “polymerase ribozyme fitness (log ratio)” value is at most -4.2. Take GGAUCUUCUCGAUCGAACAAAAAAGACAAAUCUGCCACAAAGCUUGACAGCAUCUUCGGAUGCAGAGGCGGCAGCCUUCGGUGGCGCGAUAGCACCAACGUUCUCAACUAUGACACGCAAAACGCGUGCUCCGUUGAACGGAUUUUAUCAUG: the “polymerase ribozyme fitness (log ratio)” value is at most -4.2. For the variant GGAUCUUCUCGAUCGAACAAAAAAGACAAAUCUGUCACAAAGCUAGAGUGCGUCUUCGGAUGCAGAGGCGGCAGCCUUCGGUGGCGCGAUAGUGCCAACGUUCGGAACUAUGACAGGCAAAACGCGUGCUCCGUUGAAUGGAGUUUAUCAUG, the “polymerase ribozyme fitness (log ratio)” value was at most -4.2. With GGAUCUUCUCGAUCGAACAAAAAAGACAAAUCUGCCAGAAAGCUUGAGAGCAUCUUCGGAUGCAGAGGCGGCAGCCUUCGGUGGCGCGAUAGCGCCAACGUUCUCAUCUAUGUCACGCAAAACGCGUGCUCCGUUGAAUGGAGUUUAUCAUG, the “polymerase ribozyme fitness (log ratio)” value is at most -4.2.

With GGAUCUUCUCGAUCGAACAAAAAAGACAAAUCUGCCACAAAGCUUGAGAGCAUCUUCGGAUGCAGAGGCGGCAGCCUUCGGUGGCGGGAUAGCGCCAACGUUCUCAACUAUGACGGGCAAAACGCGUGCUCCGUUGAAUGGAGUUUAUCAUG, the “polymerase ribozyme fitness (log ratio)” value was at most -4.2. For the variant GGAUCUUCUCGAUCGAACAAAAAAGACAAAUCUGACACAAAGCUUGAGAGCAUCUUCGGAUGCAGAGGCGGCAGCCUUCGGUGGCGUGAUAGCGCCAACGUUCUCAACUAUGACACGCACAACGCGUGCUCCGUUGAAUGGAGUUUAUUAUG, the “polymerase ribozyme fitness (log ratio)” value is at most -4.2. On to GGAUCUUCUCGAUCGAACAAAAAAGACAAAUCUGCCACAAAGCUUGAGAGCAUCUUCGGAUGCAGAGGCGGCAGCGUUCGGUGGCCCGAUAGCGCCAACGUUCUCAACUAUGACACGCAAAUCGCGUGCUCCCUUGAAUGGGGUUUAGCAUG, for which the “polymerase ribozyme fitness (log ratio)” value is at most -4.2.

On to GGAUCUUCUCGAUCGAACAAAAAAGACAAAUCUGCCACAAAGCUUGAGAGCAUCUUCGGAUGCAGAGGCGGCAGCCUUCGGUGGCGCGAUAGUGCCAACGUUCUCAAUUUUGACACGGAAAACGCGUGCUCCGUUGAAAGUAGUUUAUCAUG, for which the “polymerase ribozyme fitness (log ratio)” value is at most -4.2. On to GGAUCUUCUCGAUCGAACAAAAAAGACAAAUCUGCCACAAAGCUUGAGAGCAUCUUCGGAUGCAGAGGCGGCAGCCUUCGGUCGCGCGAUAGCGUAAACGUUGUCAACUAUGACACGCAAAACGCGUGCUCCGUUGAAUGGAGUUUAUCAUG, for which the “polymerase ribozyme fitness (log ratio)” value was at most -4.2. As to GGAUCUUCUCGAUCGAACAAAAAAGACAAAUCUGCCAUAAAGCUUGAGAGCAUCUUCGGAUGCAGACGCGGCAGCAUUCAGUGGCGCGAUAGCGCCAACGUUCUCAACUAUGACACGCAAAACGCGUGCUCCGUUGAAUGGAGUUUAUCAUG, the “polymerase ribozyme fitness (log ratio)” value was at most -4.2. For GGAUCUUCUCGAUCGAACAAAAAAGACAAAUCUGCCACAAAGCUUGAGAGCAUCUUCGGAUGCAGAGGCGGCAACCUUCGGUGGCGCGAUAGCGCUAACGUUCUCAACUAUGACACGCAAAACGAGUGCUCCGUUGAAUGUAGUUUAUCAUG, the “polymerase ribozyme fitness (log ratio)” value was at most -4.2. Consider GGAUCUUCUCGAUCGAACAAAAAAGACAAAUCUGCCACAAAGCUUGAGAGCAUCUUCGGAUGCAGAGGCGGCAGCCUUCGGUGGCGCAAUAGCGCCAACGUUCUCAACUAUGACACGCAAAACGCGUGCUCCGUUGAAUGGAGUUUAUGAUG, for which the “polymerase ribozyme fitness (log ratio)” value is at most -4.2. On to GGAUCUUCUCGAUCGAACAAAAAAGACAAAUCUGCCACAAAGCUUGAGAGCAUCUUCGAAUGCAGAGGCGGCAGCCUUCGGUUGCGCGAUAGCGCCAACGUUCUCAACUAUGACACGGAAAACGCGUGCUCCGUUGAAUGGAGUUUAUCAUG, for which the “polymerase ribozyme fitness (log ratio)” value is -1.13. In the case of GGAUCUUCUCGAUCGAACAAAAAAGACAAAUCUGCCACAAAGCUUGAGAGCAUCUUCGGAUGCAGAGGCGGCAGCAUUCGGUGGCGGGAAAGCGCCAACGUUAUCAACUAUGACACGCAAAACGCGUGCUCCGAUGAAUGGAGUUUAUCAUG it was at most -4.2; in that of GGAUCUUCUCGAUCGAACAAAAAACACAAAUCUGCCACAAAGCUUGAGAGCAUCUUCGGAUGCAGGGGCGGCGGCCUUCGGUGGCGCGAUAGCGCCAACGUUCUCAACUAUGACACGCAAAACGCGUGCUCCGUUGAAUAGUGUUUAUCAUG, at most -4.2.

For GGAUCUUCUCGAUCGAACAAAAAAGACAAAUCUGUCACAAAGCUUGAGAGCAUCUUCGGAUGCAGAGGCAGCAGCCUUCGGUGGCGCGAUGUCGCCAACGUUCUCAACUAUGACACGCAAAACGCGUGCUCCGUUGAAUGGAGUUUAUCAUG, the “polymerase ribozyme fitness (log ratio)” value is at most -4.2. Take GGAUCUUCUCGAUCGAACAAAAAAGACAAAUCUGCCACAAAGCUUGAGAGCAUCUUCGGAUGCAGAGGCGGCAGCCUUGGGUGGCGCGAUAGCGCCAACGUUCUCAACUAUGACACGCAAAACGCGUGCUCCGUUGAAUGGAGUUUAUCAUG: the “polymerase ribozyme fitness (log ratio)” value was -3.38.

With GGAUCUUCUCGAUCGAACAAAAAAGACAAAACUGCCAGAAAGAUUGAGAGCAUCUUCGGAUGCAGAGGCGGCAGCCUUCGGUGGCGCGAUAACUCCAACGUUCUCAACUAUGACACGCAAAACGCGUGCUCCGUUGAAUGGAGUUUAUCAUG, the “polymerase ribozyme fitness (log ratio)” value was at most -4.2. In the case of GGAUCUUCUCGAUCGAACAAAAAAGACAAAUCUGCCACAAAGCUUGAGAGUAUCUUCGGAUGCAGAGGCGGCAGCCUUCGGUGGCUCGUUAGCGCCAACGUUCUCAACUAUGAUACGCAAAACGCGUGCUCCGUUGAAUGGAGUUUAUCAUG, the “polymerase ribozyme fitness (log ratio)” value is at most -4.2. For GGAUCUUCUCGAUCGAACAAAAAAGACAAAACUGCCACAAAGCUUGAGAGCAUCUUCGGAUGCAGAGGCGGCAGCCUUCAGUGGCUCGAUAGCGCCAACGUUCUUAACUAUGAUACGCAAAACGCGUGCUCCGUUGAAUGGAGUUUAUCAUG, the “polymerase ribozyme fitness (log ratio)” value is at most -4.2. Consider GGAUCUUCUCGAUCGAACAAAAAAGACAAAUCUGCCACAAAGCUUGAGAGUAUCUUCGGAUGCAGAGGCGGCAGCCUUCGGUGGCGCGAUAGCGCCAUCGUUCUCAACUAUGACGCGCAAAACGCGUGCUCCGUUAAAUGGAGUUUAUCAUG, for which the “polymerase ribozyme fitness (log ratio)” value is -2.29. GGAUCUUCUCGAUCGAACAAAAAAGACAAAUCUGCCACAAAGCUUGAGAGCAUCUUCGGAUGCAGAGGCGGCAGCUUGCAGUGGCGCUAUAGCGCCAACGUUCUCAACUAUGACACGCAAAACGCGUGCUCCGUUGAAUGGAGUUUAUCAUG: the “polymerase ribozyme fitness (log ratio)” value was at most -4.2. On to GGAUCUUCUCGAUCGAACAAAAAAGACAAAUCUGCCACAAAGCUUGAGAGCAUCUUCGGAUGCAGAGGCGGCAGCCUUCGGUGGCGUGAUAGCACCCGCGUUCUCAACUAUGACACGCAAAACGCGUGCUCCUUUGAAUGGUGUUUAUCAUG, for which the “polymerase ribozyme fitness (log ratio)” value was at most -4.2. Under GGAUCUUCUCGAUCGAACAAAAAAGACAAAUCUACCACAAAGCUUGAGAGCAUCUUCGGAUGCAGAGGCGGCAGACUUCGGUGGCGCGAUAGCGCCAACGUUCUCAACUAUGACACGCAAAACGCGUGCUCCGUUGAAUGGAGUUUAUCUUG stands at most -4.2; under GGAUCUUCUCGAUCGAACAAAAAAGACAAAUCUGCCACAAAGCUUGAGAGCAUCUUCGGAUGCAGAGGCGGCAGCCUUCGGUGACGCGAUAGCGCCAACGUUCUCAACUAUGACACGCAAAACGCGUGCUCCGUUGAAUGGAGUUUAUCAUG, -1.57.

For GGAUCUUCUCGAUCGAACAAAAAAGACAAAUCUGCCACAAAGCUUGAGAGCAUCUUCGGAUGCAGAGGCGGCAGCCUUCGGUGGCGCGAUAUCGCCAACGUUCUCAACUAUGACACGCAAAACGCGUGCUCCGUUGAAUGGAGUUUUUCAUG, the “polymerase ribozyme fitness (log ratio)” value worked out at 0.901. As for GGAUCUUCUCGAUCGAACAAAAAAGACAAAACUGCCACAAAGCUAGAGAGCAUCUUCGGAUGCAGAGGCGGCAGCCUUCGGCGGCGCGAUAGCGCCAACGUUCUCAACUAUGACACGCAAAACGCGUGCUCCUUUGAGUGGAGUUUAUCAUC, the “polymerase ribozyme fitness (log ratio)” value was at most -4.2.
